# Assay results: paper PMC11303713, “Allosteric inhibition of CFTR gating by CFTRinh-172 binding in the pore” (Nature Communications, 2024)
# “And” between values parts separate entries of the source, which are not always exact repeats. Equal values may be shown once. The source gives many values for each of these; only a part stands here.
# Tests used:
# Assay in all cases: Inside-out patch-clamp inhibition of CFTR current by Inh-172
# Assay type in all cases: cell-based
# [1] = molecular target: T1, h-pTM8-h-CFTR (human CFTR, three TM8 amino acids replaced with pig's) (Homo sapiens, UniProt P13569, F931L/M929L/T925G)
# T1 construct: expressed in transfected cells; host or cells: CHO cells, pcDNA plasmid
# Procedure: (§1) CHO cells were grown at 37 °C in Dulbecco’s modified Eagle’s medium supplemented with 10% (vol/vol) fetal bovine serum (Sigma-Aldrich, St. Louis, MO). pcDNA plasmids carrying the desired CFTR construct were transfected to CHO cells using PolyFect transfection reagent (Qiagen, Hilden, Germany) together with green fluorescence protein (GFP) cDNA (pEGFP-C3, Takara Bio, Shiga, Japan) that helps identify expression of CFTR. Cells were first incubated with the transfection reagents at 37 °C for 6-12 hours on sterile glass chips in 35-mm tissue culture dishes before transferred to 27 °C for incubation for 2–7 days. Primers for mutations were ordered from Integrated DNA Technologies (Coralville, IA) and were summarized in Supplementary Data. All CFTR mutants were prepared with QuikChange XL kit (Agilent, Santa Clara, CA) and sequenced at the DNA Core facility at University of Missouri-Columbia.
# (§2) Patch-clamp pipettes were made from borosilicate capillary glass using a two-stage vertical puller (PP-81; Narishige, Amityville, NY). The pipette tips were fire polished with a homemade microforge to yield a pipette resistance of 2–5 MΩ when filled with a pipette solution containing (in mM): 140 NMDG-Cl (N-methyl-D-glucamine-chloride), 5 CaCl2, 2 MgCl2, and 10 HEPES, pH 7.4. For recordings, transfected cells on glass chips were transferred into a continuously perfused chamber on the stage of an inverted microscope (IX51; Olympus, Tokyo, Japan) with the perfusing solution containing (in mM): 150 NMDG-Cl, 2 MgCl2, 10 EGTA, 8 Tris, and 10 HEPES, pH 7.4. The membrane patch was excised to an inside-out configuration with a seal resistance >40 GΩ. CFTR currents were recorded with an amplifier (EPC9; HEKA, Holliston, MA), filtered through an eight-pole Bessel filter (LPF-8; Warner Instruments, Hamden, CT) at 100 Hz and digitized to a computer at a sampling rate of 500 Hz with Pulse software (version 8.53; HEKA). The membrane potential was held at −30 mV. Solution exchange was achieved by a fast solution change system (SF-77B; Warner Instruments). Inh-172 was obtained from the CFTR Chemical Compound Program supported by the Cystic Fibrosis Foundation. All experiments were performed at room temperature.
# (§3) The steady state mean currents were measured in the Igor Pro software (version 8.0; WaveMetrics). The mean baseline currents were subtracted from the steady state mean currents before the data were used to determine the degrees of inhibition. The degrees of inhibition by CFTR inhibitor 172 were calculated based on the equation:1 %inhibition=1−IInh−172/I0X100% where I0 and Iinh−172 represent uninhibited and inhibited currents, respectively. The IC50 and Hill coefficients were obtained by fitting percent inhibition as a function of [Inh-172] with the Hill equation:2 %inhibition=base+(max−base)/1+xhalf/x^rate where max and base represent the […] percent inhibition by Inh-172, x represents the concentration of Inh-172, and the rate is the Hill coefficient. The estimated IC50 (xhalf) and Hill coefficients are listed in Table 1 as mean ± standard deviation. Each patch-clamp recording was made from a separate cell.
# [2] = molecular target: T2, W1145Y-CFTR (Homo sapiens, UniProt P13569, W1145Y)
# T2 construct: expressed in transfected cells; host or cells: CHO cells, pcDNA plasmid
# Procedure: as §1, §2, §3
# [3] = molecular target: T3, T1142I-CFTR (Homo sapiens, UniProt P13569, T1142I)
# T3 construct: expressed in transfected cells; host or cells: CHO cells, pcDNA plasmid
# Procedure: as §1, §2, §3
# [4] = molecular target: T4, human WT-CFTR (Homo sapiens, UniProt P13569)
# T4 construct: the native wild-type CFTR construct without any deletion or mutation; expressed in transfected cells; host or cells: CHO cells, pcDNA plasmid
# Procedure: as §1, §2, §3
# [5] = molecular target: T5, h-pTMD2-h-CFTR (human CFTR with pig CFTR's TMD2) (Homo sapiens, UniProt P13569, A1009S/A789T/A797V/A842T/E1221D/E815D/F931L/G885K/H897K/H950R/I1005V/I1226V/I853V/I869V/I982V/INS1173D/K1174Q/K1177R/K830R/L805I/L889P/M1028L/M837V/M929L/N1184D/N782S/N886K/P888S/Q1012K/Q1035H/R1128T/R899A/S1196Q/S877C/S898G/S912A/T1171A/T1176N/T1179F/T1220V/T788A/T925G/V1017L/V1056I/V794M/W882C/Y1182S)
# T5 construct: expressed in transfected cells; host or cells: CHO cells, pcDNA plasmid
# Procedure: as §1, §2, §3
# [6] = molecular target: T6, M348K-CFTR (Homo sapiens, UniProt P13569, M348K); conditions: 5000 nM Inh-172
# T6 construct: expressed in transfected cells; host or cells: CHO cells, pcDNA plasmid
# Procedure: as §1, §2, §3
# T4 sequence (P13569 whole entry): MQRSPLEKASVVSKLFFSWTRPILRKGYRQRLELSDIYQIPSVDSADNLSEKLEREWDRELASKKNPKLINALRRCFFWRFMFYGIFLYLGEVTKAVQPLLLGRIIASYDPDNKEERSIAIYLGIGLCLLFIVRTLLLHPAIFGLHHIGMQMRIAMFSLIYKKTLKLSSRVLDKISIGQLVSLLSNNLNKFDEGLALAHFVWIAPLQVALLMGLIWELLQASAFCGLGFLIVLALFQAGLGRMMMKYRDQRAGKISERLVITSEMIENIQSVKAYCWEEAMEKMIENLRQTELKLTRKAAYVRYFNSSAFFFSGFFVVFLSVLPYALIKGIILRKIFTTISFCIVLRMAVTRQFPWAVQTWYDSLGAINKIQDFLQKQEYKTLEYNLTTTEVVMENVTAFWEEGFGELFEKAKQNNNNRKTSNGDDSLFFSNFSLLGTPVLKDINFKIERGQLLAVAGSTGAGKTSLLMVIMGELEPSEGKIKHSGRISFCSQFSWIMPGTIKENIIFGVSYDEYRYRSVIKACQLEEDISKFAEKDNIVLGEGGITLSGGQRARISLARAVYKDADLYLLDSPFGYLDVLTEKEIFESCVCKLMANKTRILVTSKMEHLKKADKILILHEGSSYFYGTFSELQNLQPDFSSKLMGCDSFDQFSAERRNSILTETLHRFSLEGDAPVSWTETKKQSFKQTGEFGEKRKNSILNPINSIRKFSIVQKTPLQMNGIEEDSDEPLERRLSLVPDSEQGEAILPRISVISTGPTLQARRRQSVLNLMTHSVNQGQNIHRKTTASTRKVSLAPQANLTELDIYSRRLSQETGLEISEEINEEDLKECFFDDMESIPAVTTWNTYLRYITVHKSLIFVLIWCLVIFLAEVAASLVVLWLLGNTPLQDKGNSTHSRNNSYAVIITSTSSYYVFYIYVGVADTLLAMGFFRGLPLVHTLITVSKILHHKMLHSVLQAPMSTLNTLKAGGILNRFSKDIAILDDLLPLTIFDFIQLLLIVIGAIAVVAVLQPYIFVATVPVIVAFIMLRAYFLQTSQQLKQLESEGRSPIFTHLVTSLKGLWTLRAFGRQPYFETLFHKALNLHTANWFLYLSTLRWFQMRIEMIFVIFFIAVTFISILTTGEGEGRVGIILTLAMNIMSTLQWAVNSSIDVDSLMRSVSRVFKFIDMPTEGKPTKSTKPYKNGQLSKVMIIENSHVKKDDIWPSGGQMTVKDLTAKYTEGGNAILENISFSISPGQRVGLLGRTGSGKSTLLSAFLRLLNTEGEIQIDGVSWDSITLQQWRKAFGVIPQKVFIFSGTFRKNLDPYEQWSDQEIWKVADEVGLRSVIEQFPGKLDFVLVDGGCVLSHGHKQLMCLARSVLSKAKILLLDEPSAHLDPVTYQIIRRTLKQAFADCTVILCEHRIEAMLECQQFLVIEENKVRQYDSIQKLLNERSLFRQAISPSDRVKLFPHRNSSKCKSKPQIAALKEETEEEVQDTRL
# T3 sequence (P13569 whole entry T1142I): as the sequence (P13569 whole entry) above, with T1142I counted along it
# T1 sequence (P13569 whole entry T925G/M929L/F931L): as the sequence (P13569 whole entry) above, with T925G, M929L, F931L counted along it
# T2 sequence (P13569 whole entry W1145Y): as the sequence (P13569 whole entry) above, with W1145Y counted along it
# T5 sequence (P13569 with tags, fused parts or gaps with the stated changes): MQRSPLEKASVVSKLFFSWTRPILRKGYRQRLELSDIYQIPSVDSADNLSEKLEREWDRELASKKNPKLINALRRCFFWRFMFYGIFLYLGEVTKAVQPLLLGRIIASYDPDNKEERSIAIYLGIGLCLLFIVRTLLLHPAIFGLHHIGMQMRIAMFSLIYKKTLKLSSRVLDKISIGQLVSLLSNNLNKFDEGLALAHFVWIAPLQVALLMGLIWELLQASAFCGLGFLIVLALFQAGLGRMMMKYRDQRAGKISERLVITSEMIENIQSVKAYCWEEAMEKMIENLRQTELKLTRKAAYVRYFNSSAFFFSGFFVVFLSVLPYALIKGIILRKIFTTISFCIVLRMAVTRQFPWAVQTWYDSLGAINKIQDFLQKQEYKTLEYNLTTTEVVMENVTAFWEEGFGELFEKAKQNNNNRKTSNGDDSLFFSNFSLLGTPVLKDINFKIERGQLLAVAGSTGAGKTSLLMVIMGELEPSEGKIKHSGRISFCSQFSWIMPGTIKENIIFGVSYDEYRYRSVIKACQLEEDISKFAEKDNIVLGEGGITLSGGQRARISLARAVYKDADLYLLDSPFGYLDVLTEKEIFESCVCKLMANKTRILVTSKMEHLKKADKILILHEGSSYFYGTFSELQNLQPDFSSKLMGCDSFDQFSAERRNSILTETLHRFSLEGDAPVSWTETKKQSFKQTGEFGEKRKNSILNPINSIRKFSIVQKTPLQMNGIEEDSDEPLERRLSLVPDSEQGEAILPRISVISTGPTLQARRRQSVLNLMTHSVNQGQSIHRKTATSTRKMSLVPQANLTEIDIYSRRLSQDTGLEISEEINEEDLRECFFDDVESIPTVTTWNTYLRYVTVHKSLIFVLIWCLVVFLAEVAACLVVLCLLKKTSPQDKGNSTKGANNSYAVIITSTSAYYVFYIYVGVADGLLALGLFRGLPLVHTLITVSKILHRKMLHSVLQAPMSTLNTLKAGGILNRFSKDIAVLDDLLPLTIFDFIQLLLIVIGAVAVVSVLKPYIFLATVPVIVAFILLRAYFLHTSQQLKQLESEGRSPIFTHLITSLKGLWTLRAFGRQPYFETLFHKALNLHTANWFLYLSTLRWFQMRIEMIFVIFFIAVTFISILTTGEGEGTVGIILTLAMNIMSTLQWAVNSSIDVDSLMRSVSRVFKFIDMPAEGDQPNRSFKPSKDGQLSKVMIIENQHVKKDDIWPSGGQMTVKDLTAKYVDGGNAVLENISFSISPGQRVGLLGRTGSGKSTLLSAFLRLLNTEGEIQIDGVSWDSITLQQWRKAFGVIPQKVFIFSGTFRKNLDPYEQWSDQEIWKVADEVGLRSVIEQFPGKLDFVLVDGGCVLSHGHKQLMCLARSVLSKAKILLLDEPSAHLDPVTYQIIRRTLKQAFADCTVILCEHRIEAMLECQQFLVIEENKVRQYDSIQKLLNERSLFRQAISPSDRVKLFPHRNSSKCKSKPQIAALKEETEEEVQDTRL
# T6 sequence (P13569 whole entry M348K): as the sequence (P13569 whole entry) above, with M348K counted along it
smiles,measurement,setting,value
"O=C(O)c1ccc(/C=C2\SC(=S)N(c3cccc(C(F)(F)F)c3)C2=O)cc1 [Inh-172, CFTRinh-172]","percent inhibition of current, individual cell",[1]; 100 nM Inh-172,25.0 and 10.0 and 13.0 and 18.0 and 26.0
same,"percent inhibition of current, individual cell",[1]; 500 nM Inh-172,50.0 and 57.0 and 37.0 and 33.0 and 42.0 and 59.0
same,"percent inhibition of current, individual cell",[1]; 1000 nM Inh-172,54.0 and 58.0
same,"percent inhibition of current, individual cell",[1]; 5000 nM Inh-172,79.0 and 80.0 and 85.0
same,"percent inhibition of current, individual cell",[2]; 100 nM Inh-172,5 and 17 and 10 and 11
same,"percent inhibition of current, individual cell",[2]; 500 nM Inh-172,46 and 30 and 42 and 43
same,"percent inhibition of current, individual cell",[2]; 1000 nM Inh-172,43 and 67 and 48 and 56
same,"percent inhibition of current, individual cell",[2]; 5000 nM Inh-172,84 and 85
same,"percent inhibition of current, individual cell",[2]; 10000 nM Inh-172,95 and 90 and 92
same,"percent inhibition of current, individual cell",[3]; 100 nM Inh-172,9.0 and 10.0 and 7.0
same,"percent inhibition of current, individual cell",[3]; 500 nM Inh-172,30.0 and 23.0 and 20.0 and 18.0
same,"percent inhibition of current, individual cell",[3]; 1000 nM Inh-172,44.0 and 37.0 and 41.0 and 39.0
same,"percent inhibition of current, individual cell",[3]; 5000 nM Inh-172,81.0 and 80.0 and 79.0 and 75.0 and 77.0
same,"percent inhibition of current, individual cell",[3]; 10000 nM Inh-172,92.0 and 91.0
same,"percent inhibition of current, individual cell",[4]; 25 nM Inh-172,14 and 32 and 30 and 34 and 26
same,"percent inhibition of current, individual cell",[4]; 50 nM Inh-172,42 and 35
same,"percent inhibition of current, individual cell",[4]; 100 nM Inh-172,61 and 60 and 64
same,"percent inhibition of current, individual cell",[4]; 500 nM Inh-172,87
same,"percent inhibition of current, individual cell",[4]; 1000 nM Inh-172,91 and 86
same,"percent inhibition of current, individual cell",[5]; 100 nM Inh-172,12.0 and 9.0 and 6.0 and 0.0
same,"percent inhibition of current, individual cell",[5]; 500 nM Inh-172,25.0 and 14.0 and 21.0
same,"percent inhibition of current, individual cell",[5]; 1000 nM Inh-172,30.0 and 31.0
same,"percent inhibition of current, individual cell",[5]; 5000 nM Inh-172,43.0 and 55.0 and 67.0 and 61.0
same,"percent inhibition of current, individual cell",[5]; 10000 nM Inh-172,51.0 and 65.0 and 58.0 and 66.0
same,"percent inhibition of current, individual cell",[6],87.0 and 82.0
